# In the supplement of paper PMC12217912:
# The other results are listed elsewhere or left out. Sequences were assembled here from the parent chain. Inactive controls read about 0.05.
# B1: TEV protease; numbered along this chain (parent)
# chain: MGESLFKGPRDYNPISSSICHLTNESDGHTTSLYGIGFGPFIITNKHLFRRNNGTLVVQSLHGVFKVKDTTTLQQHLVDGRDMIIIRMPKDFPPFPQKLKFREPQREERICLVTTNFQTKSMSSMVSDTSCTFPSGDGIFWKHWIQTKDGQCGSPLVSTRDGFIVGIHSASNFTNTNNYFTSVPKNFMELLTNQEAQQWVSGWRLNADSVLWGGHKVFMVKPEEPFQPVKEATQL
# Variants of: B1
# Experiment: raw area under fraction-flipped curve 0-4 h after induction (AUC4h, not background-subtracted), DNA-recorder readout of cleavage of the substrate (dimensionless); higher = more cleavage of the substrate by the protease variant
# Settings: temperature: 34 °C; time window: 0-4 h after rhamnose induction
# Procedure: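 In vivo DNA recorder in E. coli TOP10(DE3) ΔrhaA at 34 °C. Each TEVp single-site mutant (parent TEVp 0) is paired with a single-site variant of the 7-mer TEVs (canonical ENLYFQ|S). The substrate sits between flexible linkers in a Bxb1-sfGFP-TEVs-SsrA fusion, so cleavage stabilises Bxb1 and speeds flipping of a recombination array, read by NGS. The value is the raw area under the fraction-flipped curve over 0-4 h after rhamnose induction (AUC4h), with ≥20 reads per time point. It is not background-subtracted; inactive controls average about 0.047.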
# 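Also: Bxb1 expression induced with 0.2% (w/v) L-rhamnose at OD600 near 0.5, cultures sampled hourly, flipped fraction per protease–substrate barcode pair counted by paired-end Illumina sequencing.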
Variant,area with substrate ENLYFQA,area with substrate ENLYFQC,area with substrate ENLYFQD,area with substrate ENLYFQG,area with substrate ENLYFQH,area with substrate ENLYFQI,area with substrate ENLYFQK,area with substrate ENLYFQL,area with substrate ENLYFQM,area with substrate ENLYFQN,area with substrate ENLYFQP,area with substrate ENLYFQQ,area with substrate ENLYFQR,area with substrate ENLYFQS,area with substrate ENLYFQT,area with substrate ENLYFQV,area with substrate ENLYFQW,area with substrate ENLYFQY,area with substrate ENLYFQF,area with substrate ENLYFQE
MGESLFKGPRDYNPISSSICHLTNESDGHTTSLYGIGFGPFIITNKHLFRRNNGTLVVQSLHGVFKVKDTTTLQQHLVDGRDMIIIRMPKDFPPFPQKLKFREPQREERICLVTTNFQTKSMSSMVSDTSCTFPSGDGIFWKHWIQTKDGQCGSPLVSTRDGFIVGIHSASNFTNTNNYFTSVPKNFMELLTNQEAQQWVSGWRLNADSVLWGGHKVFMDKPEEPFQPVKEATQL [V220D],0.127,0.134,0.081,0.101,0.0926,0.0602,0.0563,0.0589,0.0838,0.0945,0.0556,0.071,0.0533,0.122,0.0673,0.0829,0.0629,0.0943,–,–
MGESLFKGPRDYNPISSSICHLTNESDGHTTSLYGIGFGPFIITNKHLFRRNNGTLVVQSLHGVFKVKDTTTLQQHLVDGRDMIIIRMPKDFPPFPQKLKFREPQREERICLVTTNFQTKSMSSMVSDTSCTFPSGDGIFWKHWIQTKDGQCGSPLVSTRDGFIVGIHSASNFTNTNNYFTSVPKNFMELLTNQEAQQWVSGWRLNADSVLWGGHKVFMNKPEEPFQPVKEATQL [V220N],0.0733,0.116,–,0.106,0.0747,–,0.0677,0.0551,0.086,0.0927,–,–,0.0589,0.112,0.0725,–,0.0629,–,0.087,–
MGESLFKGPRDYNPISSSICHLTNESDGHTTSLYGIGFGPFIITNKHLFRRNNGTLVVQSLHGVFKVKDTTTLQQHLVDGRDMIIIRMPKDFPPFPQKLKFREPQREERICLVTTNFQTKSMSSMVSDTSCTFPSGDGIFWKHWIQTKDGQCGSPLVSTRDGFIVGIHSASNFTNTNNYFTSVPKNFMELLTNQEAQQWVSGWRLNADSVLWGGHKVFMVKEEEPFQPVKEATQL [P222E],0.0848,0.135,0.0664,0.139,0.0771,0.0562,0.0598,0.0518,0.0859,–,0.0629,–,0.0803,0.111,0.0565,0.0608,0.0502,0.0868,0.0715,–
MGESLFKGPRDYNPISSSICHLTNESDGHTTSLYGIGFGPFIITNKHLFRRNNGTLVVQSLHGVFKVKDTTTLQQHLVDGRDMIIIRMPKDFPPFPQKLKFREPQREERICLVTTNFQTKSMSSMVSDTSCTFPSGDGIFWKHWIQTKDGQCGSPLVSTRDGFIVGIHSASNFTNTNNYFTSVPKNFMELLTNQEAQQWVSGWRLNADSVLWGGHKVFMVKPEEAFQPVKEATQL [P225A],0.0645,0.112,0.0734,0.116,0.0631,0.0666,0.0599,0.0729,–,0.0747,–,0.0691,0.0581,0.106,0.0671,0.0551,0.0703,0.0736,–,0.0616
